{
  "source": "PubChem BioAssay AID1345083",
  "about": "(National Center for Advancing Translational Sciences (NCATS), 2018)",
  "note": "In all, about 94,000 compounds went through this assay and about 6,200 (6.6%) were called active. The inconclusive results got no clear call from the source; some entries with a clear call stand among them for comparison. The call rests on the fitted dose curve; in most records, active means well fitted inhibition curve with a large enough effect; inconclusive means small, poorly fitted or top-dose-only effect; inactive means flat fitted curve, though single readings scatter. Potencies beside an inconclusive call are fits to weak or partial responses and may not hold up. On the % scale 0 is the no-effect control and ±100 the full control effect; potency means the concentration at half of the fitted maximal effect; tags describe the fitted curve by direction and shape.",
  "data": [
    {"assay": "Cytotoxic Profiling in HEK 293 Cell Line of Diverse Libraries Using Quantitative High-Throughput Screening; further: nearly all actives have a fitted effect of over 60% in size", "details": "HEK 293 viability, ATP luminescence (CellTiter-Glo), 48-72 h; activity change, negative = cytotoxicity: at 115 µM (top of the series) unless noted; series mostly up to 115 µM", "outline": "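Viability of HEK 293 cells, plated at 250 cells/well, was judged by cellular ATP after compound treatment for 48 or 72 hr. Luminescence was imaged 10 min after CellTiter-Glo addition at room temperature.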", "values": [
      {"compound": "COc1ccccc1CNC(=O)c1c(C)oc2ccn(Cc3cccc(F)c3)c(=O)c12", "Potency": "inconclusive: 22.4 µM [inhibitor, full curve]"},
      {"compound": "COCCN1CCCCCC(O)c2cc(C(=O)NCc3cc(OC)ccc3OC)ccc21", "note": "(stereo not given)", "Potency": "inconclusive: 89.1 µM [inhibitor, partial curve, poor fit]"},
      {"compound": "CCOc1ccccc1CN1CCC2(CCN(C(=O)Cc3ccc(F)cc3)CC2)Oc2ccccc21", "Potency": "active: 35.5 µM"},
      {"compound": "COCC1CCN(Cc2cn(-c3ccccc3C)nc2-c2ccc(OC)c(F)c2)CC1", "Potency": "inconclusive: 89.1 µM [inhibitor, single point]"},
      {"compound": "CN(Cc1cccnc1)c1ccc2ncc(Nc3cccc(C(F)(F)F)c3)n2n1", "Potency": "active: 39.8 µM"},
      {"compound": "CCC(C)NC(=O)C(NC(=O)c1cccc(OC)c1)C1CCN(C(=O)CC(C)(C)C)CC1", "note": "(stereo not given)", "activity change, negative = cytotoxicity": "inactive: -5.51%"},
      {"compound": "COc1ccc(NC(=O)N[C@H]2[C@H](O)[C@@H](N3CCN(c4ccccc4)CC3)[C@@H]3OC[C@H]2O3)cc1", "Potency": "inconclusive: 35.5 µM [inhibitor, full curve, poor fit]"},
      {"compound": "O=C1CC2(CCN(Cc3ccsc3)CC2)Oc2ccccc2N1", "Potency": "inconclusive: 39.8 µM [inhibitor, partial curve, poor fit]"},
      {"compound": "COc1ccc(Nc2ccnc(N3CCC(NC(=O)c4cccc(OC)c4)CC3)n2)cc1", "Potency": "active: 35.5 µM"},
      {"compound": "COc1cccc(-c2ccc(C(=O)NCCNC(=O)C3CCCC3)cc2)c1", "Potency": "inconclusive: 89.1 µM [inhibitor, partial curve, poor fit]"},
      {"compound": "O=C1C2CN(Cc3ccncc3Cl)CCC2OCCN1Cc1ccccc1F", "note": "(stereo not given)", "Potency": "inconclusive: 79.4 µM [inhibitor, partial curve]"},
      {"compound": "COCC(=O)N1CCN(Cc2ccccc2-c2ccccc2F)CC1", "Potency": "inconclusive: 126 µM [inhibitor, single point]"},
      {"compound": "Cc1ncsc1CN1CCOc2ccc(C(=O)NCc3ccccc3F)cc2C1", "Potency": "inconclusive: 79.4 µM [inhibitor, partial curve]"},
      {"compound": "Cc1nnc(-c2cc(-c3ccc(CO)cc3)ccn2)n1Cc1ccncc1", "activity change, negative = cytotoxicity": "inactive: 3.58% [at 172 µM]"},
      {"compound": "O=C(Nc1ccc(Oc2ccccc2)cc1)N[C@H]1CO[C@H]2[C@@H]1OC[C@@H]2n1cc(-c2ccccn2)nn1", "Potency": "inconclusive: 56.2 µM [inhibitor, partial curve, poor fit]"},
      {"compound": "C#CCNC(=O)c1nc2cccnc2n(C2CCCC2)c1=O", "Potency": "inconclusive: 100 µM [inhibitor, partial curve, poor fit]"},
      {"compound": "O=C(NC1CC1)c1ccccc1OCC1CCCN(Cc2cn[nH]c2-c2ccc(F)cc2)C1", "note": "(stereo not given)", "Potency": "inconclusive: 89.1 µM [inhibitor, single point]"},
      {"compound": "Oc1ccc(-c2nc(C3CC3)nc3c2CN(CC2CC2)CC3)cc1", "Potency": "inconclusive: 100 µM [inhibitor, partial curve, poor fit]"},
      {"compound": "N#Cc1ccccc1-c1cc2c(ccn2Cc2ccncc2)c(N2CCOCC2)n1", "Potency": "inconclusive: 100 µM [inhibitor, partial curve]"},
      {"compound": "N#Cc1ccc(CN2CCC(N3CCOCC3=O)CC2)cc1", "activity change, negative = cytotoxicity": "inactive: -18.3%"},
      {"compound": "O=C(c1cccc2[nH]ccc12)N1CCC(c2noc(C3CC3)n2)C1", "note": "(stereo not given)", "Potency": "inconclusive: 31.6 µM [inhibitor, full curve, poor fit]"},
      {"compound": "NC(=O)CN1C(=O)[C@@H]2CN(C(=O)c3ccc4c(c3)OCO4)CCN2C1=O", "activity change, negative = cytotoxicity": "inactive: -4.16% [at 172 µM]"},
      {"compound": "COc1ccc(CN2C[C@@H](F)[C@@H](OCc3nc4ccc(F)cc4[nH]3)C2)cn1", "Potency": "inconclusive: 100 µM [inhibitor, partial curve]"},
      {"compound": "COc1ccccc1-c1ccc(CN2CCCCC2C(=O)NCc2ccccc2F)cc1", "note": "(stereo not given)", "Potency": "active: 39.8 µM"},
      {"compound": "Cc1ccccc1NC(=O)N1CCC(CCNC(=O)c2ccco2)CC1", "activity change, negative = cytotoxicity": "inactive: 18.9%"},
      {"compound": "COc1ccc(NC(=O)N[C@@H]2C=C[C@@H](c3c(C)nn(-c4ccc(C(C)C)cc4)c3C)C2)cc1", "Potency": "inconclusive: 39.8 µM [inhibitor, full curve, poor fit]"},
      {"compound": "O=C(Nc1cccc(F)c1)N1Cc2[nH]cnc2C[C@H]1c1nc(-c2cccc([N+](=O)[O-])c2)no1", "Potency": "inconclusive: 56.2 µM [inhibitor, partial curve, poor fit]"},
      {"compound": "O=C(NC1CCN(c2ccnc3ccnn23)C1)C1CC1", "note": "(stereo not given)", "activity change, negative = cytotoxicity": "inactive: -22.1% [at 172 µM]"},
      {"compound": "COc1ccc(C)cc1NC(=O)CC1CCCN(c2cnn(CC3CC3)c(=O)c2)C1", "note": "(stereo not given)", "Potency": "inconclusive: 70.8 µM [inhibitor, single point]"},
      {"compound": "O=C(NCc1nnc2ccc(-c3ccccc3)nn12)c1ccc(Cl)s1", "Potency": "inconclusive: 79.4 µM [inhibitor, single point]"},
      {"compound": "COc1ccc(C(C)NC(=O)c2c(C)oc3ccn(Cc4cccc(F)c4)c(=O)c23)cc1", "note": "(stereo not given)", "Potency": "active: 31.6 µM"},
      {"compound": "CC1CCN(C(=O)C[C@@H]2c3nc(NC(=O)c4ccnc(Cl)c4)sc3C[C@@H]3[C@](C)(CO)[C@H](O)CC[C@]32C)CC1", "Potency": "inconclusive: 50.1 µM [inhibitor, partial curve, poor fit]"},
      {"compound": "CN(Cc1ccccc1)C1CCOC2(CCN(S(=O)(=O)c3ccc(F)cc3)CC2)C1", "note": "(stereo not given)", "Potency": "inconclusive: 79.4 µM [inhibitor, partial curve, poor fit]"},
      {"compound": "O=C(Cn1ccn2nc(-c3ccc(F)cc3)c(CO)c2c1=O)NCc1ccccc1Cl", "Potency": "inconclusive: 79.4 µM [inhibitor, single point]"},
      {"compound": "COC1CN(C2CCN(C(=O)c3cccs3)CC2)C12CCOCC2", "note": "(stereo not given)", "activity change, negative = cytotoxicity": "inactive: -2.93%"},
      {"compound": "CCC(C(=O)NCCn1ccn2nc(-c3ccc(F)cc3)cc2c1=O)c1ccccc1", "note": "(stereo not given)", "Potency": "active: 20 µM"},
      {"compound": "CCN1CCCC2(Cc3ccccc3CN(C(C)=O)C2)C1", "note": "(stereo not given)", "activity change, negative = cytotoxicity": "inactive: -2.89% [at 172 µM]"},
      {"compound": "COc1ccc(C(=O)N2CCc3ccc(C(=O)NCc4cccc(C)c4)cc32)cc1", "Potency": "inconclusive: 50.1 µM [inhibitor, partial curve, poor fit]"},
      {"compound": "COc1cc2c(cc1OC)C(CNC(=O)CC(C)C)N(C(=O)Nc1cccc(C)c1)CC2", "note": "(stereo not given)", "Potency": "inconclusive: 100 µM [inhibitor, single point]"},
      {"compound": "COc1ccc(NC(=O)N(C)Cc2cccc(C(F)(F)F)c2)cc1", "Potency": "inconclusive: 126 µM [inhibitor, partial curve, poor fit]"}
    ]}
  ]
}
